In article PMC4336329 (PLoS ONE, 2015):
About 2,200 (0.71%) of roughly 310,000 compounds showed an effect of 50% or more. Effects have a minus sign here. This is one part of the list.

target: human ether-à-go-go-related gene (hERG) potassium channel (human, UniProt Q12809); experiment: primary screen, population patch clamp on CHO cells stably expressing hERG
Sequence (Q12809 whole entry, looked up): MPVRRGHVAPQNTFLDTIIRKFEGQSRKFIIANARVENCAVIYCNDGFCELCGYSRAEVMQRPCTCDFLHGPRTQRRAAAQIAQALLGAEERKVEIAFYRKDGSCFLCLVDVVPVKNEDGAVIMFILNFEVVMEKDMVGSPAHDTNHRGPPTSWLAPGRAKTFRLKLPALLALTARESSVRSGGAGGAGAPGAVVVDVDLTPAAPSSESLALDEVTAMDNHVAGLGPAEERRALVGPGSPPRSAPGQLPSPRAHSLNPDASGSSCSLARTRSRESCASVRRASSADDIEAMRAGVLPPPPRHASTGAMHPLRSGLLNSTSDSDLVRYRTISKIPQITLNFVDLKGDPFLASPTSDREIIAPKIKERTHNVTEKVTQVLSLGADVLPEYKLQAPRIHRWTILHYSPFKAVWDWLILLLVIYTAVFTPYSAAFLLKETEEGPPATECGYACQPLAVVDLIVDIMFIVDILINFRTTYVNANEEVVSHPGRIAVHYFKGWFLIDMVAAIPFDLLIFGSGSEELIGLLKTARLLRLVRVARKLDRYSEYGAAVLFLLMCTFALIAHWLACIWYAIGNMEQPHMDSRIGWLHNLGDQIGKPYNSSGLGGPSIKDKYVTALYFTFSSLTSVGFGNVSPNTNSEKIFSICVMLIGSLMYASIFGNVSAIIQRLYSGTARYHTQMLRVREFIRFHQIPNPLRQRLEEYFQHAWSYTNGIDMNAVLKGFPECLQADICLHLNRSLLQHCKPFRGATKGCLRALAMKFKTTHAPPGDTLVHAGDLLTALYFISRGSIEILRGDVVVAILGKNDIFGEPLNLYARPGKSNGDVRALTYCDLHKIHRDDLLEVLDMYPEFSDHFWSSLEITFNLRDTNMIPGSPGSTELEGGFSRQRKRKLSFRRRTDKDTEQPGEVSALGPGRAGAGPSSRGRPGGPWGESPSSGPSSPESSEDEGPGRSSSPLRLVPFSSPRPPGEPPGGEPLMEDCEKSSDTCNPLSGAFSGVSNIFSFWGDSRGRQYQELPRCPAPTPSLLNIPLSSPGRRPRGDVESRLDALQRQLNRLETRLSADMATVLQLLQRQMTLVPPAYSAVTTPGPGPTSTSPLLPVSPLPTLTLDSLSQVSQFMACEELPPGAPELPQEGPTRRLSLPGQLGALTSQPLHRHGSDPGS

Compound | hERG current change (%, negative = inhibition) at 1uM
COC(=O)COc1ccc(S(=O)(=O)N2CCN(c3ccc(F)cc3)CC2)cc1 | -3.44%
CC(C)(C)OC(=O)N1CCC(c2cc(=O)n3[nH]cc(C(=O)NC4CCCC4)c3n2)CC1 | 13.8%
COc1ccc(-c2cc3nc4n(c(=O)c3s2)CCCCC4)cc1 | 11%
O=C(Cc1ccccc1)N1CCCC1c1ccccc1 (centres unmarked) | 10.1%
O=C1CCCC(O)=C1Sc1ccccc1C(=O)O | 7.98%
COc1ccc(N(C(=O)c2snc(C(N)=O)c2N)C(C(=O)NC2CCCC2)c2cc(OC)ccc2OC)cc1 (centres unmarked) | 1.31%
O=C(c1cc(S(=O)(=O)N2CCCCC2)ccc1F)N1CCC2(CC1)OCCO2 | -12.1%
CCOc1ccccc1N(C(=O)CNC(=O)c1ccco1)C(C(=O)NC1CCCC1)c1cccnc1 (centres unmarked) | 1.39%
CC(NC(=O)c1ccc2nc[nH]c2c1)c1ccccc1 (centres unmarked) | 6.54%
CCN1CCN(c2ccc(S(=O)(=O)N3CCOCC3)cc2NC(=O)C(C)Oc2cccc(Cl)c2)CC1 (centres unmarked) | -25.8%
COc1ccc(C(=O)Nc2ccccc2C(=O)Nc2ccccc2C(=O)O)cc1 | 10.6%
Cc1noc(C)c1COC(=O)/C=C/c1ccccc1Cl | 7.66%
Cc1ccc2c(c1)C1CN(C)CCC1N2C(=O)CCCN1C(=O)c2cccc3cccc(c23)C1=O (centres unmarked) | -6.16%
O=C(O)c1ccc2c(c1)C(=O)N(c1cccc(C(=O)/C=C/c3ccccc3)c1)C2=O | 16.3%
O=c1c(-c2n[nH]c(=S)o2)cccn1Cc1ccccc1 | 6.74%
Cc1nc(SCc2ccc(Cl)cc2)ncc1C(=O)O | 12%
O=C(O)Cn1c2c(c3ccccc31)CSc1ccc(Cl)cc1-2 | 18%
C#CCOCCOCCOCCNc1nc(N2CCN(C(=O)C([C@@H](C)CC)n3cc(C(N)COC(=O)C(F)(F)F)nn3)CC2)nc(N2CCN(C(=O)[C@H](Cc3ccc(O)cc3)n3cc(C(N)[C@H](C)CC)nn3)CC2)n1.Cl (some centres unmarked) | 16.4%
CCCOc1ncnc2c1[nH]c1ccc(OC)cc12 | 10.1%
COc1ccc(Cl)cc1NC(=O)C(C)OC(=O)Cn1cc(C(F)(F)F)ccc1=O (centres unmarked) | 11.5%
COc1ccc(/C=N/NC(=O)c2c(C)nc3ccc(Cl)cn23)cc1OC | 6.45%
CCOC(=O)C1CCN(S(=O)(=O)c2ccc(-c3cc(C(F)(F)F)n(C)n3)s2)CC1 | -8.95%
COc1ccc(CCNS(=O)(=O)c2ccc(C(=O)NCc3ccco3)cc2)cc1OC | 8.44%
Cc1ccc(CNC(=O)C2CCCCN2S(=O)(=O)c2ccccc2)cc1 (centres unmarked) | 15%
Cc1ccc(S(=O)(=O)NNC(=S)Nc2ccc(Cl)cc2)cc1 | 5.21%
COc1ccc(NC(=O)C2CC(=O)N(C)C(=Nc3ccc4c(c3)OCO4)S2)cc1 (centres unmarked) | -7.2%
Cc1ccc(NC(=O)NNC(=O)COc2ccc3ccccc3c2)cc1 | 12.5%

Compound | hERG current change (%, negative = inhibition) at 1uM
O=C(NCCCCc1ccccc1)c1ccccc1Cl | 13.6%
Cc1ccc(CN(C(=O)c2ccc([N+](=O)[O-])cc2)C2CCS(=O)(=O)C2)o1 (centres unmarked) | 4.21%
COc1cccc(-c2nnc(NC(=O)c3cccs3)s2)c1 | 21.4%
Cc1[nH]nc2c1C(Cc1ccccc1)C(C#N)=C(N)O2 (centres unmarked) | 1.21%
COc1ccccc1OCC(=O)Nc1ccc(S(=O)(=O)N2CCOCC2)cc1 | 1.96%
CCOC(=O)CSc1nc2c(c(=O)[nH]c(=O)n2C)n1C/C=C(/C)Cl | -7.88%
CC(C(=O)NCC1CCCO1)c1ccc([N+](=O)[O-])cc1 (centres unmarked) | -0.0299%
O=C(NCc1ccccc1)C1=C[C@@H](c2coc3ccccc3c2=O)C[C@@H](OCCCCO)O1 | -42.5%
CSC[C@H](NC(=O)Cc1c(C)c2cc3c(C)c(C)oc3cc2oc1=O)C(=O)N[C@@H](Cc1ccccc1)C(=O)O | 3.32%
COP(=O)(OC)C(Nc1ccc(Cl)cc1)c1ccccc1 (centres unmarked) | 8.64%
O=C(CSCc1ccccc1)Nc1ccc(F)cc1F | 6.48%
COc1cccc(N2C(=O)NC(=O)/C(=C/c3ccc4c(c3)Cc3ccccc3-4)C2=O)c1 | 3.88%
CCCCn1c(N)c(N(CC(C)C)C(=O)c2cccc(S(=O)(=O)N3CCCCCC3)c2)c(=O)[nH]c1=O | 4.52%
COCCNC(=S)N=Nc1c(O)[nH]c2ccc([N+](=O)[O-])cc12 | -0.751%
CCCNc1c(NS(=O)(=O)c2ccc3c(c2)CCCC3)c(=O)oc2ccccc12 | 13.1%
CCN(CC(=O)NCc1ccc(Cl)cc1)C(=O)c1ccc(S(=O)(=O)NCc2ccco2)cc1 | -0.864%
O=C(Nc1cccc(C(F)(F)F)c1)c1cccnc1NCCc1ccccc1 | 7.9%
O=C(O)C[C@]1(C(=O)Nc2ccc(F)cc2)CC(/C=C/c2ccccc2)=NO1 | 9.76%
COc1cc(/C=C2\N=C(C)OC2=O)cc(OC)c1OC | 16.3%
COc1cc(C(=O)OCn2nnc3ccccc3c2=O)cc(OC)c1OC | 15.8%
COc1ccccc1N=Nc1c(C)[nH]n(-c2ccccc2)c1=O | 14%
CC(C)(C)c1ccc(OCCON2C(=O)CCC2=O)c(Cl)c1 | -14%
Cc1cc(N(C)/N=C/c2ccccc2O)nc(-c2ccccc2O)n1 | 20.6%
O=c1c2ccccc2nc(-c2cccs2)n1-c1cccc2ccccc12 | 9.63%
CC(C)(C)Sc1ccccc1S(=O)(=O)C(C)(C)C | 7.35%
O=c1ccc(-c2ccc(S(=O)(=O)Nc3ccccc3Cl)o2)n[nH]1 | 13.8%
